Measurements published in the supplement of paper PMC6609913.
Where a name gives a salt, the structure may show the parent alone. ± gives the standard deviation of the averaged measurements. In all, about 1,300 compounds were measured (“normalised cell viability”: median about 1, lowest 2% from about 0.15 on). The list shows a part of the results.

System: V-C8 + BRCA2 (BRCA2-proficient hamster cells)
Test: normalised cell viability (fraction of plate median); higher = more viable cells (less toxic)
Details: 5 µM
Method in brief: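 In two screens, library drugs at 5 μM were given for 3 days (screen 1) or 6 days (screen 2) to hamster V-C8 cells without BRCA2 and V-C8 cells with BRCA2 restored, seeded 24 h earlier in 96-well plates. A resazurin assay gave the cell viability readout, expressed as modified robust per cent of sample against the plate median, with triplicate wells averaged.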

| SMILES | normalised cell viability (treatment time: 3 days) | normalised cell viability (treatment time: 6 days) |
| --- | --- | --- |
| CNCC[C@@H](Oc1ccccc1C)c1ccccc1 [Tomoxetine hydrochloride] | 0.99 ± 0.038 | 0.884 ± 0.022 |
| O=C(CCCCC(=O)Nc1c(I)cc(I)c(C(=O)O)c1I)Nc1c(I)cc(I)c(C(=O)O)c1I [Iodipamide] | 1.07 ± 0.05 | 1.02 ± 0.06 |
| COCCCOc1ccnc(C[S+]([O-])c2nc3ccccc3[nH]2)c1C (stereo not given) [Rabeprazole Sodium salt] | 0.924 ± 0.024 | 1.01 ± 0.019 |
| O=C(O)Cc1cc(I)c(Oc2ccc(O)c(I)c2)c(I)c1 [Tiratricol, 3,3',5-triiodothyroacetic acid] | 1.02 ± 0.021 | 1.08 ± 0.1 |
| CCCCOC(=O)c1ccc(O)cc1 [Butylparaben] | 1.01 ± 0.016 | 1.14 ± 0.043 |
| CCCc1nc2c(C)cc(-c3nc4ccccc4n3C)cc2n1Cc1ccc(-c2ccccc2C(=O)O)cc1 [Telmisartan] | 0.97 ± 0.036 | 0.936 ± 0.031 |
| CC(=O)/N=c1/sc(S(N)(=O)=O)nn1C [Methazolamide] | 1.08 ± 0.062 | 0.977 ± 0.052 |
| N=C(N)N1CCc2ccccc2C1 [Debrisoquin sulfate] | 1.081 ± 0.01 | 1.03 ± 0.017 |
| CCCCC1C(=O)N(c2ccccc2)N(c2ccccc2)C1=O [Phenylbutazone] | 1.007 ± 0.01 | 0.848 ± 0.16 |
| O=C(Nc1ccccc1)OCC(CN1CCCCC1)OC(=O)Nc1ccccc1 (stereo not given) [Diperodon hydrochloride] | 0.992 ± 0.073 | 0.992 ± 0.034 |
| CCCC(=O)Nc1ccc(OCC(O)CNC(C)C)c(C(C)=O)c1 (stereo not given) [Acebutolol hydrochloride] | 0.99 ± 0.034 | 1.04 ± 0.012 |
| CC(=O)Nc1ccc(OCC(O)CNC(C)C)cc1 (stereo not given) [Practolol] | 1.06 ± 0.025 | 1.05 ± 0.043 |
| CN1[C@@H]2CC[C@H]1C[C@@H](OC(c1ccccc1)c1ccccc1)C2 [Benztropine mesylate] | 1.05 ± 0.04 | 0.981 ± 0.028 |
| N=C(N=C(N)N)N1CCOCC1 [Moroxidine hydrochloride] | 0.911 ± 0.03 | 0.98 ± 0.047 |
| CC(=O)OCC(=O)[C@@]12OC3(CCCC3)O[C@@H]1C[C@H]1[C@@H]3CCC4=CC(=O)C=C[C@]4(C)[C@@]3(F)[C@@H](O)C[C@@]12C [Amcinonide] | 1.01 ± 0.07 | 1 ± 0.05 |
| Cc1cccc(C)c1NC(=O)CN1CCN(CCCC(c2ccc(F)cc2)c2ccc(F)cc2)CC1 [Lidoflazine] | 0.719 ± 0.041 | 0.803 ± 0.093 |
| CC(=O)O[C@]1(C(C)=O)CC[C@H]2[C@@H]3C=C(C)C4=CC(=O)CC[C@]4(C)[C@H]3CC[C@@]21C [Megestrol acetate] | 0.842 ± 0.17 | 0.924 ± 0.038 |
| CC[C@@]1(O)C(=O)OCc2c1cc1n(c2=O)Cc2cc3c(CN(C)C)c(O)ccc3nc2-1 [Topotecan] | 0.165 ± 0.0065 | 0.167 ± 0.011 |
| Nc1nnc(-c2cccc(Cl)c2Cl)c(N)n1 [Lamotrigine] | 0.987 ± 0.072 | 0.986 ± 0.044 |
| Clc1cc(Cl)c(OCC#CI)cc1Cl [Haloprogin] | 0.278 ± 0.01 | 0.247 ± 0.048 |
| Nc1nc(=O)[nH]cc1F [Flucytosine] | 0.964 ± 0.058 | 1.02 ± 0.05 |
| O=C1C(O)=C(O)C(=O)C(O)=C1O [Tetrahydroxy-1,4-quinone monohydrate] | 0.978 ± 0.037 | 1.02 ± 0.014 |
| Cc1nccn1CC1CCc2c(c3ccccc3n2C)C1=O (stereo not given) [Ondansetron Hydrochloride] | 1.104 ± 0.0039 | 1.22 ± 0.077 |
| CC(=O)NC[C@H]1CN(c2ccc(N3CCOCC3)c(F)c2)C(=O)O1 [Linezolid] | 1.06 ± 0.11 | 1.04 ± 0.04 |

| SMILES | normalised cell viability (treatment time: 3 days) | normalised cell viability (treatment time: 6 days) |
| --- | --- | --- |
| COc1ccc2c(c1)c(CC(=O)OCC(=O)O)c(C)n2C(=O)c1ccc(Cl)cc1 [Acemetacin] | 1.07 ± 0.033 | 1.04 ± 0.11 |
| CCOCCn1c(N2CCCN(C)CC2)nc2ccccc21 [Emedastine] | 1.07 ± 0.11 | 1.06 ± 0.032 |
| CC[C@H](C)C(=O)O[C@H]1C[C@H](O)C=C2C=C[C@H](C)[C@H](CC[C@@H](O)C[C@@H](O)CC(=O)O)[C@H]21 [Pravastatin] | 0.969 ± 0.14 | 1.02 ± 0.089 |
| CC1=C(C(=O)O)N2C(=O)[C@@H](NC(=O)[C@H](N)c3ccccc3)[C@H]2SC1 [Cephalexin monohydrate] | 1.22 ± 0.055 | 0.998 ± 0.057 |
| CC(C)(C)NCC(O)COc1cccc2c1CC(O)C(O)C2 (stereo not given) [Nadolol] | 1.03 ± 0.05 | 1.06 ± 0.089 |
| CC(C)Cn1cnc2c(N)nc3ccccc3c21 [Imiquimod] | 1.02 ± 0.042 | 1.019 ± 0.0077 |
| NC(=O)N1c2ccccc2CC(=O)c2ccccc21 [Oxcarbazepine] | 1.113 ± 0.002 | 1.05 ± 0.033 |
| Cc1cccc(Nc2ccncc2S(=O)(=O)NC(=O)NC(C)C)c1 [Torsemide] | 1.08 ± 0.021 | 0.998 ± 0.024 |
| CC1(C)O[C@@H]2[C@@H](CO[C@@]3(COS(N)(=O)=O)OC(C)(C)O[C@@H]23)O1 [Topiramate] | 1.01 ± 0.063 | 1.03 ± 0.027 |
| COc1cc(NS(=O)(=O)c2ccc(N)cc2)nc(OC)n1 [Sulfadimethoxine] | 0.955 ± 0.019 | 0.907 ± 0.056 |
| CC[N+](CC)(CC(=O)Nc1c(C)cccc1C)Cc1ccccc1 [Denatonium benzoate] | 1.03 ± 0.055 | 1.087 ± 0.0065 |
| CN(Cc1ccc(C(C)(C)C)cc1)Cc1cccc2ccccc12 [Butenafine Hydrochloride] | 1.06 ± 0.05 | 0.982 ± 0.048 |
| CC(=O)CC(c1ccc([N+](=O)[O-])cc1)c1c(O)c2ccccc2oc1=O (stereo not given) [Acenocoumarol] | 0.92 ± 0.023 | 0.979 ± 0.053 |
| CCCCCCCCNC(C)C(O)c1ccc(SC(C)C)cc1 (stereo not given) [Suloctidil] | 0.653 ± 0.045 | 0.743 ± 0.068 |
| S=c1[nH]cnc2nc[nH]c12 [Mercaptopurine] | 0.767 ± 0.066 | 0.799 ± 0.008 |
| COc1ccc2c3c1O[C@H]1C[C@@H](O)C=C[C@@]31CCN(C)C2 [Galanthamine hydrobromide] | 0.989 ± 0.035 | 1.07 ± 0.11 |
| Cc1nnc(SCC2=C(C(=O)O)N3C(=O)[C@@H](NC(=O)Cn4cnnn4)[C@H]3SC2)s1 [Cefazolin sodium salt] | 1.1 ± 0.034 | 1.01 ± 0.12 |
| O=c1[nH]c(=O)n([C@H]2C[C@H](O)[C@@H](CO)O2)cc1C(F)(F)F [Trifluridine] | 0.337 ± 0.056 | 0.332 ± 0.037 |
| CC(C)NC(=N)NC(=N)Nc1ccc(Cl)cc1 [Proguanil hydrochloride] | 0.211 ± 0.013 | 0.203 ± 0.015 |
| C[C@]12CCC(=O)C=C1C=C[C@@H]1[C@@H]2CC[C@@]2(C)[C@H]1CC[C@@]21CCC(=O)O1 [Canrenone] | 1.02 ± 0.014 | 1.078 ± 0.0054 |
| CC1(C)S[C@@H]2[C@H](NC(=O)[C@H](N)c3ccccc3)C(=O)N2[C@H]1C(=O)OC1OC(=O)c2ccccc21 (stereo not given in full) [Talampicillin hydrochloride] | 1.01 ± 0.04 | 0.835 ± 0.22 |
| NC(=O)OCC(O)COc1ccc(Cl)cc1 (stereo not given) [Chlorphensin carbamate] | 0.929 ± 0.076 | 0.952 ± 0.08 |
| COC(=O)CCc1ccc(OCC(O)CNC(C)C)cc1 (stereo not given) [Esmolol hydrochloride] | 0.932 ± 0.14 | 0.875 ± 0.14 |
| COCCOC(=O)C1=C(C)NC(C)=C(C(=O)OC(C)C)C1c1cccc([N+](=O)[O-])c1 (stereo not given) [Nimodipine] | 1.21 ± 0.36 | 1.01 ± 0.032 |

| SMILES | normalised cell viability (treatment time: 3 days) | normalised cell viability (treatment time: 6 days) |
| --- | --- | --- |
| CN1C(C(=O)Nc2ccccn2)=C(O)c2ccccc2S1(=O)=O [Piroxicam] | 1.02 ± 0.032 | 1.05 ± 0.015 |
| CNCCC=C1c2ccccc2C=Cc2ccccc21 [Norcyclobenzaprine] | 0.931 ± 0.082 | 0.919 ± 0.017 |
| NC(=O)c1ccc[n+]([C@@H]2O[C@H](COP(=O)([O-])OP(=O)(O)OC[C@H]3O[C@@H](n4cnc5c(N)ncnc54)[C@H](O)[C@@H]3O)[C@@H](O)[C@H]2O)c1 [Nadide] | 0.984 ± 0.038 | 1.11 ± 0.077 |
| O=C(CCCN1CCC(O)(c2ccc(Cl)cc2)CC1)c1ccc(F)cc1 [Haloperidol] | 0.926 ± 0.1 | 0.801 ± 0.076 |
| COc1ccc2c(c1)C(=O)N(CCc1ccc(S(=O)(=O)NC(=O)NC3CCCCC3)cc1)C(=O)C2(C)C [Gliquidone] | 1.09 ± 0.017 | 1.02 ± 0.024 |
| NS(=O)(=O)Cc1noc2ccccc12 [Zonisamide] | 0.995 ± 0.055 | 1.01 ± 0.11 |
| CN(C)CCN(Cc1ccc(Cl)cc1)c1ccccn1 [Chloropyramine hydrochloride] | 1.06 ± 0.086 | 0.9302 ± 0.004 |
| COc1ccc([C@@H]2Sc3ccccc3N(CCN(C)C)C(=O)[C@@H]2OC(C)=O)cc1 [Diltiazem hydrochloride] | 1.16 ± 0.083 | 0.992 ± 0.092 |
| Cc1cn([C@H]2C[C@H](N=[N+]=[N-])[C@@H](CO)O2)c(=O)[nH]c1=O [Zidovudine, AZT] | 1.05 ± 0.091 | 0.96 ± 0.031 |
| CC(C[N+](C)(C)C)OC(N)=O (stereo not given) [Bethanechol chloride] | 0.975 ± 0.056 | 1.04 ± 0.041 |
| CCCNC(C)C(=O)Nc1c(C)csc1C(=O)OC (stereo not given) [Articaine hydrochloride] | 1.03 ± 0.015 | 1.05 ± 0.035 |
| NCCc1cc[nH]n1 [Betazole hydrochloride] | 1.07 ± 0.052 | 1.05 ± 0.033 |
| COc1cccc(N(C)C(=S)Oc2ccc3c(c2)CCCC3)n1 [Liranaftate] | 0.8 ± 0.029 | 0.796 ± 0.043 |
| Cc1c(NC(C)C)c(=O)n(-c2ccccc2)n1C [Isopyrin hydrochloride] | 0.953 ± 0.029 | 0.976 ± 0.082 |
| COC1=CC(=O)C[C@@H](C)[C@]12Oc1c(Cl)c(OC)cc(OC)c1C2=O [Griseofulvin] | 0.853 ± 0.024 | 0.836 ± 0.038 |
| COc1cc(N)c(Cl)cc1C(=O)NC1CCN(CCCOc2ccc(F)cc2)CC1OC (stereo not given) [Cisapride] | 1.04 ± 0.075 | 0.999 ± 0.03 |
| CN(C)CCC(c1ccc(Cl)cc1)c1ccccn1 (stereo not given) [Chlorpheniramine maleate] | 1.18 ± 0.034 | 1.07 ± 0.073 |
| CCCC(CCC)C(=O)O [Valproic acid] | 0.998 ± 0.085 | 1.01 ± 0.034 |
| CN(C)CCCC1(c2ccc(F)cc2)OCc2cc(C#N)ccc21 (stereo not given) [Citalopram Hydrobromide] | 1.04 ± 0.023 | 0.923 ± 0.01 |
| Cc1onc(-c2ccccc2)c1C(=O)N[C@@H]1C(=O)N2[C@@H]1SC(C)(C)[C@@H]2C(=O)O [Oxacillin sodium] | 1.04 ± 0.042 | 0.989 ± 0.025 |
| O=C(O)CNC(=O)C(CS)Cc1ccccc1 (stereo not given) [Thiorphan] | 1.01 ± 0.011 | 0.945 ± 0.073 |
| Cc1c(OCC(F)(F)F)ccnc1C[S+]([O-])c1nc2ccccc2[nH]1 (stereo not given) [Lansoprazole] | 0.99 ± 0.086 | 1.06 ± 0.071 |
